In brackets after ≈: the same amount, converted by molar mass. Some of the results follow. Further columns of the screen follow, without active or inactive calls. Compounds called inactive in the main read-out are mostly missing here. Some results are limits rather than exact numbers.

This assay in a line: Vibrio cholerae motility inhibitors, OD read-out (AID 588778). The conditions noted are these: CC50: measured here: Vero cell cytotoxicity; IC50: measured here: V. cholerae viability alamarBlue; inhibition: measured here: bacterial viability at 10 ug/mL, stronger effect = higher value.
A word on the inhibition: it is the change of the read-out against control, counted positive when it falls. Consider `O=C(CSc1ccccc1)Nc1cc(Cl)c(O)c(Cl)c1`, for which the inhibition stood at 26.8%.

Turning to `O=C(c1ccc(Br)cc1)n1c(Cc2ccccc2)nc2ccccc21`, the inhibition was 27.4%.

Take `N/C(=N\c1nc(C(F)(F)F)cc(C(F)(F)F)n1)Nc1ccc([N+](=O)[O-])cc1`: the inhibition stood at 37%.

As to `CSc1ncc(C(=O)Nc2nccs2)cn1`, the inhibition came out at 24.4%.

As a reminder, the IC50 is the concentration that inhibits the measured activity by half. For `O=[N+]([O-])c1nn(Cc2ccc(F)cc2)cc1Br`, the IC50 is more than 50 µg/mL and the inhibition was determined as 53.3%.

For the compound `O=C1CCCC2=C1Sc1ccc(Cl)cc1N2`, the inhibition was 26.6%.

As for `O=C(Nc1cccc(Cl)c1)Nc1ccc(N2CCOCC2)c(C(F)(F)F)c1`, the inhibition amounted to 40.8%.

For the compound `Nc1nc(NC(=O)c2ccco2)nn1-c1ccccc1`, the IC50 is more than 50 µg/mL and the inhibition was determined as 38.8%.

As to `O=[N+]([O-])c1cc(CN2CCOCC2)c2cccnc2c1O`, the inhibition stood at 26.1%.

Turning to `Cc1c(C=C(C#N)C#N)c(C)c([N+](=O)[O-])c(C)c1[N+](=O)[O-]`, the inhibition is 23.3%.

Turning to `CC(=O)Oc1ccccc1C(=O)NCCC1=CCCCC1`, the inhibition is -2.71%.

For `Cc1cccc(NC(=S)NC2CCCC2)n1`, the inhibition was -1.45%.

`CCC(C(=O)Nc1ncn[nH]1)c1ccccc1` (stereo unspecified): the inhibition was 0.36%.

For `CCOC(=O)c1ccc(NC(=S)NCCc2ccccc2F)cc1`, the inhibition was 8.79%.

In the case of `CCCOc1ccc(CNC(=O)NCc2ccc(OC(C)C)cc2)cc1`, the inhibition stood at 7.48%.

As for `Oc1cc(Oc2ccccc2)ccc1Cl`, the inhibition is 34.4%.

As to `Cc1cc(C)c(CCl)c(C)c1/C=N/Nc1ccc([N+](=O)[O-])cc1[N+](=O)[O-]`, the inhibition came to 7.46%.

Take `CC(=O)Nc1cccc(NS(=O)(=O)Cc2ccc(Cl)cc2)c1`: the inhibition was found to be 28%.

As to `COCCCNC(=S)NNC(=O)c1ccccn1`, the inhibition was found to be 32.2%.

Turning to `O=c1cc(-c2ccccc2)nc(-c2ccccc2)o1`, the inhibition turned out to be 21.7%.

As a reminder, the CC50 is the concentration that lowers cell viability or growth by half. For `Cc1ccc(C)c(Nc2nc(NCCO)c3ccccc3n2)c1`, the CC50 was more than 20 µg/mL, the IC50 is 25.8 µg/mL (≈ 83.6 µM) and the inhibition was -0.74%.

For `O=C(c1c[nH]c2ccccc12)C(F)(F)F`, the inhibition worked out at 43.4%.

`O=C(Nc1cccc(I)c1)C(Cl)Cl`: the inhibition worked out at 45.5%.

In the case of `O=[N+]([O-])c1nn(Cc2c(F)cccc2Cl)cc1Cl`, the 50% inhibitory concentration (IC50) is more than 50 µg/mL and the inhibition was found to be 25.9%.

As for `CC(=O)NC(c1ccc2c(c1)OCO2)c1ccc2cccnc2c1O` (stereo unspecified), the inhibition is 2.88%.

For `O=C(Nc1cc(Cl)ccc1O)C(c1ccccc1)c1ccccc1`, the inhibition is -1.05%.

Source of the values: PubChem BioAssay AID588778 (Southern Research Institute, 2011).
